Data taken from publication PMC4336329 (PLoS ONE, 2015).
Among all 310,000 compounds or so, about 14,000 (4.5%) showed an effect of 50% or more. Effects have a minus sign here. The list shows a part of the results.

target: human ether-à-go-go-related gene (hERG) potassium channel (human, UniProt Q12809); assay: primary screen, population patch clamp on CHO cells stably expressing hERG
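Further: peak tail current of the secondary pulse compared with the same well before compound.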

human ether-à-go-go-related gene (hERG) potassium channel, sequence (Q12809 whole entry, looked up): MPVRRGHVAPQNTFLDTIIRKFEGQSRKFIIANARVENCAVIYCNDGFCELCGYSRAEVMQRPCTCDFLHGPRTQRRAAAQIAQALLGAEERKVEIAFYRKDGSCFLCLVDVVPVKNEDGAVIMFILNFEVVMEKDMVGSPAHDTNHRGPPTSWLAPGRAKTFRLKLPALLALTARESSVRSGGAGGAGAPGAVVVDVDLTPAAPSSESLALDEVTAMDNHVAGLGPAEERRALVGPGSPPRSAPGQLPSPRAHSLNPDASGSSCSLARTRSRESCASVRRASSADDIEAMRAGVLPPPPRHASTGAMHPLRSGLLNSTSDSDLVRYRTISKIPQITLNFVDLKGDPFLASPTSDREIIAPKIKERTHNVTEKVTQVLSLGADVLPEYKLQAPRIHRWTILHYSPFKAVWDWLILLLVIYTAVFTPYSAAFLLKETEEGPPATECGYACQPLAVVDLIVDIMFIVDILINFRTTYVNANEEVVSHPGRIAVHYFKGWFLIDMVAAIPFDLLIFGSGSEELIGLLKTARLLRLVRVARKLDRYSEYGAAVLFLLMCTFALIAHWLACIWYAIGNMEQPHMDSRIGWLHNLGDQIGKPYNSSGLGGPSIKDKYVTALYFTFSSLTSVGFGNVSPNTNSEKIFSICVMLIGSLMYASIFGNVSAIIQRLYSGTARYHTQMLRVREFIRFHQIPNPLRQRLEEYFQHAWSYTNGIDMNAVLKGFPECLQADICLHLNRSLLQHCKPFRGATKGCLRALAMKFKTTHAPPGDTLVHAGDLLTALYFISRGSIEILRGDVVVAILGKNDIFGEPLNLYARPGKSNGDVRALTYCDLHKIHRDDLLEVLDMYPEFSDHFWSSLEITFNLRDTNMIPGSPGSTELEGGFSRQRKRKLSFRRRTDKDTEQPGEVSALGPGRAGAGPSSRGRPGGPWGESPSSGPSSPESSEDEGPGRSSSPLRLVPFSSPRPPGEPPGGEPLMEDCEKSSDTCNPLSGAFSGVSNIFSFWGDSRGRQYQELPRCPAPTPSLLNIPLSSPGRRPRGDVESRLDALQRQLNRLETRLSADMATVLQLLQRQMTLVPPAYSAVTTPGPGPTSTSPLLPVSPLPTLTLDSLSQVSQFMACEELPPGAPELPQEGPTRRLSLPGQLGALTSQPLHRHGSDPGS

Structure (SMILES)	hERG current change (%, negative = inhibition) at 10uM
CCc1cc(=O)oc2c(CNCc3ccc(OC)cc3OC)c(O)c(Cl)cc12.Cl	13.3%
COc1ccc(NC(=O)c2ccc3ccccc3n2)cc1S(=O)(=O)Nc1ccccc1Cl	26.4%
O=C1c2ccccc2C(Nc2ccc(S(=O)(=O)N3CCOCC3)cc2)N1c1cccnc1 (stereo not drawn)	-15%
COc1ccc(C)cc1NC(=O)c1cc2ccccc2o1	2.98%
O=C(COc1ccc(Br)cc1CO)Nc1ccc(S(=O)(=O)N2CCCCC2)cc1	-22.9%
CC(=O)Nc1ccc(NS(=O)(=O)c2cc(Cl)ccc2Cl)cc1	-14.8%
O=C(CNS(=O)(=O)c1c(Cl)cccc1Cl)OCC(=O)c1ccc[nH]1	-1.58%
CCOc1cc(CNc2ccc(OC)cc2)cc(Br)c1OCC(=O)NC(C)(C)C	0.824%
Cc1cccc(C)c1NC(=O)COC(=O)C1CC(=O)N(Cc2ccccc2)C1 (stereo not drawn)	-1.53%
O=c1oc2cc(O)ccc2s1	15.4%
CC(=O)c1ccc(OCCCC(=O)n2nnc3ccccc32)cc1	36%
C=CCn1c(NCCO)nc2c1c(=O)n(C)c(=O)n2C	9.07%
CC/C(Cc1ccccc1)=N/NC(=O)CCn1nnc2ccccc21	2.05%
CCOC(=O)C1=C(C)NC2=C(C(=O)CC(c3ccc(OC)c(OC)c3)C2)C1c1ccc(C)o1 (stereo not drawn)	-24.8%
CN(CC(=O)Nc1ccc(F)c(F)c1F)C(=O)C1=COCCO1	16.1%
O=C(CCCC(=O)N(CC(=O)NC1CCCC1)C1CCCC1)Nc1ccccn1	4.33%
CCn1c(C)csc1=NC(=O)c1ccccc1	-6.7%
CN(c1ccccc1)S(=O)(=O)c1cccc(NC(=O)c2cccc(C#N)c2)c1	-40.2%
CN1CCN(C(=O)C23CCC(C)(C(=O)C2Br)C3(C)C)CC1 (stereo not drawn)	1.95%

Structure (SMILES)	hERG current change (%, negative = inhibition) at 10uM
C/C(=N\Nc1nc(N)cc(Cl)n1)c1ccc(F)cc1	-7.64%
CCN(CC)S(=O)(=O)c1cc(NC(=O)C(=O)c2c(-c3ccccc3)cc3ccccn23)ccc1C	-6.68%
CCCOc1ccc(/C(O)=C2/C(=O)C(=O)N(CCCn3ccnc3)C2c2ccc(C)o2)cc1 (stereo not drawn)	9.62%
COc1cccc(/C=N/NC(=O)CSc2nnc(C)n2-c2ccccc2)c1OC	-5.39%
CCCS(=O)(=O)Nc1cccc(-c2ccc3nnc(C)n3n2)c1	5.7%
CC(=O)Nn1cnc2c(c1=O)C1(CCCC1)Cc1ccccc1-2	-4.19%
CCN(Cc1ccccc1)C(=O)c1cccc(S(=O)(=O)N2CCN(Cc3ccccc3)CC2)c1	-19.6%
O=C(O)CSCC(=O)NCc1ccc(Cl)cc1	-0.915%
CCOc1ccc(Cl)cc1S(=O)(=O)N1CCC(C(=O)NC2CC2)CC1	-7.55%
CC1CCCCN1C(=S)NCc1ccccc1 (stereo not drawn)	3.27%
O=C(Cn1cnc2c(oc3ccccc32)c1=O)N1CCN(c2ccccc2)CC1	9.97%
Cc1nc2c(cnn2-c2ccccc2)c(=O)n1/N=C/c1ccccc1	11.9%
OCCCc1nc2ccccc2n1Cc1ccccc1	7.46%
CCOC(=O)c1n[nH]c(=O)c2ccccc12	-9.88%
COc1cc(-n2c(=O)c3ccccc3n(Cc3cc(=O)n4ccccc4n3)c2=O)cc(OC)c1OC	-3.63%
Cc1ccc(C(=O)C(C)OC(=O)c2ccc(Cl)nc2)cc1 (stereo not drawn)	-4.4%
COc1cc(NC(=S)NNC(=O)C(C)(C)O)cc(OC)c1	28.6%
CCCCOc1cccc(C(=O)Nc2ccc(NC(=O)c3ccco3)cc2)c1	8.63%
O=C1Nc2ccc(Br)cc2/C1=C/C(=O)c1ccc2c(c1)OCO2	9.53%

Structure (SMILES)	hERG current change (%, negative = inhibition) at 10uM
CC(C)CNC(=O)[C@H]1N2C(=O)c3ccccc3C2SC1(C)C (stereo partly drawn)	8.23%
O=C(NC1CCCCCC1)C1CCN(S(=O)(=O)c2cnc[nH]2)CC1	8.78%
CCn1c(CNc2ccc(F)cc2)nnc1SCC(=O)Nc1ccc(OC)cc1	-10.8%
CNC(=O)/C(C#N)=C/c1c(N2CCN(c3cccc(Cl)c3)CC2)nc2c(C)cccn2c1=O	9.43%
O=c1c2cnn(-c3ccccc3)c2ncn1Cc1cccc(Cl)c1	17.7%
CC(C)CCOc1ccc(C2=NNC(=O)CC2)cc1	-1%
Cc1cccc(/C=N/NC(=O)C2CCCNC2=O)c1 (stereo not drawn)	19%
COc1ccc(CCCNC(=O)C2CCC(=O)N(CCc3cccc(F)c3)C2)cc1 (stereo not drawn)	-53.1%
CCCNS(=O)(=O)c1ccc(OCC(=O)NCCCOC)cc1	16.9%
COc1ccc(-c2nc(-c3ccc(Br)cc3)no2)c(OC)c1	-3.97%
Cc1ccc(NC(=O)C2=C(O)CCn3c2nc2ccccc23)cc1	0.473%
Cc1nn(-c2ccc3ccccc3c2)c(=O)c2ccccc12	16.8%
CC(C)CCn1c2ccccc2c2cc(CC(N)=O)ccc21	6.69%
Cc1csc(SCCN2C(=O)c3ccccc3C2=O)n1	2.6%
COc1ccc(Cc2nc3ccc(C(=O)NC4CCOC4)cc3o2)cc1 (stereo not drawn)	15.1%
Cc1ccc(C(=O)NCCCc2ccccc2)c(C)c1	1.29%
CC1(C)CC(=O)C(C=Nc2ccccc2Sc2ccccc2)=C(O)C1	-4.14%
CCc1nnc(NS(=O)(=O)c2ccc(NCc3cc(Br)ccc3O)cc2)s1	7.53%
O=c1[nH]c(SCc2cccc(Cl)c2)nc2ccccc12	-2.62%
